Experimental data as given in PubChem BioAssay AID1345082 (National Center for Advancing Translational Sciences (NCATS), 2018).
Values joined by “and” are separate entries in the source; they are usually repeats but may differ in a detail not shown here. Identical values can stand only once. Among all 94,000 compounds or so, about 4,000 (4.3%) were called active. This list was built around the results that the source calls inconclusive (neither active nor inactive); the mix of calls is not that of the screen. Calls come from the whole dose curve; as a rule, active = well fitted inhibition curve with a large enough effect; inconclusive = small, poorly fitted or top-dose-only effect; inactive = no such curve, though single readings can be large or run the other way. A potency beside an inconclusive call is a rough fit, not a confirmed value.

Assay: Cytotoxic Profiling in NIH 3T3 Cell Line of Diverse Libraries Using Quantitative High-Throughput Screening; note: nearly all actives have a fitted effect of over 55% in size
Conditions: NIH 3T3 viability, CellTiter-Glo ATP luminescence, 48-72 h; series mostly up to 96.7 µM
How it was run: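 NIH 3T3 cells at 400 cells/well received 23 nL of compound by pintool and were incubated 48 or 72 h at 37 °C. Viability was read as ATP-coupled CellTiter-Glo luminescence.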
Potency is the fitted concentration of half-maximal effect; tags give direction and shape of the fitted curve.

SMILES | Potency
COCCCNC(=O)c1nc2nc(-c3ccccc3)c(Cl)cc2n1C | inconclusive: 22.4 µM [inhibitor, full curve, poor fit]
COc1ccc(CCNC(=O)c2cn3cc(-c4cccc(OC)c4)sc3n2)cc1 | inconclusive: 35.5 µM [inhibitor, partial curve, poor fit]
Cc1cc(C(=O)N(CCC(=O)NCc2ccccc2)CCC(C)C)c(C)o1 | inconclusive: 50.1 µM [inhibitor, partial curve, poor fit]
Cc1ccc(NC(=O)N2CCC3(CC2)SCC(=O)N3Cc2ccccc2)cc1 | inconclusive: 50.1 µM [inhibitor, partial curve, poor fit]
c1ccc2ncc(CNC[C@H]3COCc4nc5ccccc5n43)cc2c1 | inconclusive: 35.5 µM [inhibitor, partial curve, poor fit]
CCOC(=O)N1CCC(=O)N(CC)C[C@H]2COc3cc(OC)ccc3[C@H]21 | inactive
CC1CCN(Cc2ccccc2OCC(O)CN2CCSCC2)CC1 (stereo not drawn) | inactive
C#CCNC(=O)c1nc(-c2ccc([S+](C)(=O)[O-])cc2)c2ccccn12 | inconclusive: 39.8 µM [inhibitor, partial curve, poor fit]
O=C1NC2(CN(Cc3ccccc3)C2)Oc2ccccc21 | inactive
CC(CCc1ccccc1)NC(=O)Cn1cccc1-c1nc(-c2ccccc2)no1 (stereo not drawn) | inactive
Cc1ccc(NC(=O)C2CCN(c3cc(C(F)(F)F)ncn3)CC2)cc1Cl | active: 17.8 µM
O=C(C1CCCC1)N1CCn2c(nn(-c3ccc(F)cc3)c2=O)C1 | inconclusive: 56.2 µM [inhibitor, partial curve, poor fit]
Cc1cccc(CN2CCCC(c3nc(CCOCC4CC4)no3)C2)c1 (stereo not drawn) | inconclusive: 50.1 µM [inhibitor, partial curve, poor fit]
Cc1c(-c2ccccc2F)[nH]c2ccc(CNC(=O)CCc3cnccn3)cc12 | inconclusive: 10 µM [inhibitor, full curve, poor fit]
CN(C(=O)Cc1cccc(Cl)c1)C1CCc2ccccc21 (stereo not drawn) | inconclusive: 79.4 µM [inhibitor, partial curve, poor fit]
COc1cc(F)cc(-c2cnc3[nH]cc(CC(=O)NCc4cccnc4)c3c2)c1 | inconclusive: 63.1 µM [inhibitor, partial curve, poor fit]
N#Cc1cccc(OCc2nnc(C(=O)N3CCC[C@@H]3c3nc4ccccc4[nH]3)n2-c2ccccc2)c1 | inconclusive: 39.8 µM [inhibitor, partial curve, poor fit]
COc1ccc(C(=O)NC[C@H]2O[C@@H](CC(=O)N3CCN(c4ccccc4OC)CC3)[C@H](O)[C@@H]2O)cc1 | inactive
CC(C)CNC(=O)N1CCc2nc(OCC3CC3)ccc2C1 | inconclusive: 22.4 µM [inhibitor, partial curve, poor fit]
Cc1cccc(OCC2(CNC3CCC3)C[C@@H](O)[C@@H](O)C2)n1 (stereo partly drawn) | inactive
Cc1ccc(-n2nc3n(c2=O)CCN(C(=O)Cc2cccc(Cl)c2)C3)cc1 | inconclusive: 50.1 µM [inhibitor, partial curve, poor fit]

SMILES | Potency
Cc1cccc(NC(=O)Cn2c(-c3ccccc3)nc(C)cc2=O)c1 | inconclusive: 70.8 µM [inhibitor, single point]
Cc1cccc(-c2ccc3c(c2)C(=O)N2CC[C@H](NC(=O)NC(C)C)C[C@H]2C(=O)N3)c1C | inconclusive: 100 µM [inhibitor, partial curve, poor fit]
CN1CCN(c2ccc(-c3cn(C)c(=O)n4cc(COc5ccnn5C)nc34)cn2)CC1 | inconclusive: 100 µM [inhibitor, partial curve, poor fit]
CC(C)NC(=O)Cc1ccc(N(Cc2cccc(F)c2)C(=O)c2ccco2)cc1 | inconclusive: 50.1 µM [inhibitor, partial curve, poor fit]
Cc1cccc2c1O[C@H]1[C@H](CO)CN(C(=O)CCc3ccccc3)[C@@H]21 | inconclusive: 50.1 µM [inhibitor, partial curve, poor fit]
CNC(=O)c1cc(C)nc2onc(C3CCCN(C(=O)c4ccc(Cl)cc4)C3)c12 (stereo not drawn) | inactive
O=c1n(CC2CC2)nc2n1CCN(S(=O)(=O)c1ccc(Cl)s1)CC2 | inactive
Cc1nccn1-c1ccc(CNC(=O)c2cn(-c3ccccc3)nn2)cc1 | inconclusive: 25.1 µM [inhibitor, full curve]
CCOCc1nc(C2CCCN(C(=O)Nc3cccc(F)c3C)C2)no1 (stereo not drawn) | inactive
c1ccc2sc(C3CCCN(Cc4cc5n(n4)CCNC5)C3)nc2c1 (stereo not drawn) | inactive
Cc1noc([C@H]2CCN(Cc3cccs3)C[C@H]2NC(=O)C2CC2)n1 | inactive
Cc1noc2c(N(C)C)cc(-c3cccs3)nc12 | inconclusive: 79.4 µM [inhibitor, partial curve]
COCCCn1c(=O)c(C(=O)N2CCN(C(=O)Nc3ccc(Cl)cc3)CC2)nc2cccnc21 | inconclusive: 79.4 µM [inhibitor, single point]
FC(F)(F)c1ccc(CN2CCC3(CC2)CC(c2cccnc2)=NO3)cc1 | inactive and inconclusive: 10 µM [inhibitor, partial curve, poor fit]
Cc1nc2c(c(-c3ccc(O)cc3)n1)CN(Cc1ccccc1)CC2 | inconclusive: 79.4 µM [inhibitor, partial curve, poor fit]
Cc1cc(OC2CN(Cc3cccc4ccccc34)C2)ccc1F | inconclusive: 89.1 µM [inhibitor, partial curve, poor fit]
COc1ccc(F)cc1-c1cccc(C(=O)NCCNC(=O)c2ccccc2Cl)c1 | inconclusive: 50.1 µM [inhibitor, partial curve, poor fit]
O=C(CCn1cnc2ccccc2c1=O)N[C@@H]1COCC[C@H]1Oc1ccccn1 | inactive
COc1ccc(CN2CC3(COCC2=O)CN(c2ccccc2)C3)cc1F | inconclusive: 100 µM [inhibitor, partial curve, poor fit]
COCCOC(=O)N1CCC(COc2ccc3c(cnn3CCC(=O)O)c2)CC1 | inconclusive: 50.1 µM [inhibitor, full curve, poor fit]
Cn1ncc(CN2CCc3[nH]cnc3C2c2cccc(C#N)c2)c1C1CC1 (stereo not drawn) | inactive

SMILES | Potency
O=C(C1CCN([S+](=O)([O-])c2cccs2)CC1)N1CCC(N2Cc3ccccc3C2=O)CC1 | inactive and inconclusive: 50.1 µM [inhibitor, partial curve, poor fit]
COc1ccc(CN(C)Cc2ccc(F)cc2)cc1 | inactive
CN(c1cc(=O)c2ccnc(-c3ccc(F)c(Cl)c3)c2o1)C1CCOCC1 | inconclusive: 100 µM [inhibitor, partial curve, poor fit]
COC(=O)[C@@H]1Cc2c([nH]c3ccccc23)[C@H]2C[C@@H](N3CCOCC3)C[C@@H](c3ccccc3)N21 | inconclusive: 50.1 µM [inhibitor, partial curve, poor fit]
Cc1sc2cc(C(=O)N3CCCCC3)[nH]c2c1CN1CCCCC1 | inconclusive: 70.8 µM [inhibitor, single point]
CCC(=O)N1Cc2ccccc2CC2(CCN(Cc3ccccc3)C2)C1 (stereo not drawn) | inactive
CN(Cc1cccnc1)Cc1nc(C2(O)CCN(Cc3ccccc3)CC2)cs1 | inconclusive: 79.4 µM [inhibitor, partial curve]
CC(C)CN(Cc1cccnc1)C1CN(C(=O)Nc2ccccc2F)C1 | inactive
Cc1nn(-c2ccccc2)c2c1C(C1CC1)N(CC1CN(C(=O)c3cccnc3)C1)C2=O (stereo not drawn) | inconclusive: 70.8 µM [inhibitor, partial curve, poor fit]
O=C1CCCN1CCC1CCCCN1C(=O)c1cn(Cc2ccc(F)cc2Cl)nn1 (stereo not drawn) | inactive
O=C(N[C@H]1CCN2C(=O)c3cc(-c4cccc(C(F)(F)F)c4)ccc3NC(=O)[C@H]12)C1CCCC1 | inconclusive: 79.4 µM [inhibitor, partial curve, poor fit]
CCN1c2cc(C(=O)NCc3ccc(F)cc3Cl)ccc2C(=O)N2CCCCCC21 (stereo not drawn) | inconclusive: 50.1 µM [inhibitor, partial curve, poor fit]
c1ccc(Nc2cc3c(cn2)CN(Cc2ccsc2)CCN3)cc1 | active: 56.2 µM
COCCNc1ncccc1-c1noc([C@@H]2CCCN2CC(C)(C)C)n1 | active: 50.1 µM
Cc1ccc(-c2noc([C@@H]3Cc4nc[nH]c4CN3Cc3cccc(C#N)c3)n2)cc1 | active: 100 µM
O=C(O)c1cccc(C2CCCN(C(=O)c3c(F)cccc3Cl)C2)c1 (stereo not drawn) | inconclusive: 89.1 µM [inhibitor, single point]
Cc1nn(-c2ccccc2)c2c1C(C)N(CC1CN(C(=O)Nc3ccc(Cl)cc3)C1)C2=O (stereo not drawn) | inconclusive: 12.6 µM [inhibitor, full curve]
Cc1cc(C)cc(-c2ccc(CN3CCCC(NC(=O)c4ccccc4F)C3)cc2)c1 (stereo not drawn) | inconclusive: 50.1 µM [inhibitor, partial curve, poor fit]
COc1cccc(-c2nc(-c3nnn4c3COC(c3ccc(Cl)cc3)C4)no2)c1 (stereo not drawn) | inactive
CC1(c2ccccc2)N(Cc2ccccc2C#N)C(=O)OC12CCN(C(=O)c1cccc(O)c1)CC2 (stereo not drawn) | inconclusive: 25.1 µM [inhibitor, partial curve]
O=C(NCc1ccncc1)c1cc(-c2ccc(Cl)cc2Cl)c2cccn2n1 | inconclusive: 50.1 µM [inhibitor, partial curve, poor fit]
